Measurements from PubChem BioAssay AID492947 (National Center for Advancing Translational Sciences (NCATS), 2010).
About 80 (0.02%) of roughly 330,000 compounds were called active. Inconclusive means that the source gave no clear call. Such entries were picked first, then a sample of the others. Calls come from the whole dose curve; as a rule, active = well fitted activation curve with a large enough effect; inconclusive = small, poorly fitted or top-dose-only effect; inactive = flat fitted curve, though single readings scatter. Potencies of inconclusive entries are left out as doubtful fits.
Note: nearly all actives have a fitted effect of over 65% in size.
Potency is the fitted concentration of half-maximal effect; tags give direction and shape of the fitted curve.
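Throughout, for activation: 0% = DMSO controls and full agonism = EC100 isoproterenol or metaproterenol.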

What follows are compounds tested against Beta-2 adrenergic receptor (Homo sapiens) (UniProt P07550) (assay: qHTS assay of beta-arrestin-biased ligands of beta2-adrenergic receptor). Conditions: beta-arrestin recruitment to beta2AR, cell-based reporter; series mostly up to 46.1 µM; activation: at the top concentration.
UniProt P07550, sequence (P07550 whole entry, looked up): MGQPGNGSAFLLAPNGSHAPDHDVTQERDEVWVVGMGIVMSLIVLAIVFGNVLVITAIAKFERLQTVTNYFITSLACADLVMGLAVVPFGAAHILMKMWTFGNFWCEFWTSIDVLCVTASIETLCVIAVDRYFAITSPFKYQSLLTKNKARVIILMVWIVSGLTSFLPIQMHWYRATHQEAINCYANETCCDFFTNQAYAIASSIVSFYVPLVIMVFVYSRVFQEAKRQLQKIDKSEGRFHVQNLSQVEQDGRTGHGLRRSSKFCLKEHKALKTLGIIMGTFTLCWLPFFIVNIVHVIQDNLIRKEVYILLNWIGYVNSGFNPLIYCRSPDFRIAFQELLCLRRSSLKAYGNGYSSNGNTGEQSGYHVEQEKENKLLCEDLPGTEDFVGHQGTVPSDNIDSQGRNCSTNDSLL
In short: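 Compound series up to 46 microM applied to beta2-AR/beta-arrestin Tango cells, 18 hr, 37 degrees C, 5% CO2. Read-out: tTA-driven luciferase luminescence, converted to %Activity; concentration-response curves assigned curve classes.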
In the case of `O=C(/C=C/c1ccc2c(c1)OCO2)Nc1c(C(=O)O)[nH]c2ccccc12`, the Potency is reported as inconclusive [activator, partial curve].
In the case of `CCNC(=S)N/N=C/c1cc(C)n(-c2ccc(Cl)cc2)c1C`, the Potency is reported as inconclusive [rising, single point].
`O=C(O)c1ccc(/C=N/Nc2nnnn2-c2ccccc2)cc1` was tested, and the Potency was inconclusive [rising, single point].
With `COCCCNC(=S)N/N=C/c1ccccc1O` the Potency was inconclusive [rising, single point].
With `O=C(CSc1cccc[n+]1[O-])c1cc(Cl)ccc1Cl` the Potency was inconclusive [rising, partial curve, poor fit].
`CN(CCOc1ccc(Cl)cc1)C(=O)c1cc([N+](=O)[O-])ccc1N1CCOCC1` was tested, and the Potency was inconclusive [rising, single point].
For `CC(=O)c1cccc(NC(=O)CSc2ccc(-c3sc(C)nc3C)nn2)c1`, the “activation” value was inactive: 0.441%.
With `COc1ccc(/C(C)=N/NC(=S)NCCc2ccccc2)cc1` the Potency was inconclusive [rising, single point].
`O=C(CN1C(=O)NC2(CCCCCC2)C1=O)c1ccc2c(c1)OCCO2` was tested, and the “activation” value was inactive: -0.26%.
In the case of `CC(C)(C)OC(=O)CNC(=O)c1[nH]cnc1C(=O)Nc1ccc(Cl)cc1`, the “activation” value is reported as inactive: -1.21%.
In the case of `Cc1ccccc1NC(=O)c1c([N+](=O)[O-])c(C(C)(C)C)nn1C`, the Potency is reported as inconclusive [activator, partial curve].
For `Cc1ccccc1NC(=S)N=Nc1c(O)n(C)c2ccc(S(=O)(=O)N3CCOCC3)cc12`, the Potency was inconclusive [rising, single point].
With `C=CCNC(=S)NN=C1CCCCCCC1` the Potency was inconclusive [activator, full curve].
`OC(CC1CC12c1ccccc1-c1ncccc12)(c1ccccc1)c1ccccc1` (centres undefined) was tested, and the Potency was inconclusive [rising, single point].
For `N#Cc1ccc(N2Cc3ccccc3C2=NC(=O)c2cccnc2Cl)cc1`, the Potency was inconclusive [rising, single point].
With `CCCCCC(=O)Nc1ccc(N2CCN(C(=O)CCC)CC2)cc1` the “activation” value was inactive: -0.0244%.
`O=C(CNC(=O)c1ccc2c(c1)OCO2)N/N=C(Br)/C=C/c1ccccc1` was tested, and the Potency was inconclusive [rising, single point].
With `Cc1ccc(-n2cc(CCCCCCCCC(=O)O)nn2)cc1` the “activation” value was inactive: -1.62%.
For `CCCCCOCC1CC(C/C(C)=N/NC(N)=S)C(=O)O1` (centres undefined), the Potency was inconclusive [rising, single point].
In the case of `CC(=O)/C(=N\Nc1ccc(Cl)cc1Cl)Sc1cccc2cccnc12`, the Potency is reported as inconclusive [rising, single point].
In the case of `Cc1ccc(C)c(/C=C/C(=O)c2ccccc(=O)c2O)c1`, the Potency is reported as inconclusive [rising, single point].
For `O=C(O)c1ccccc1SCC(=O)N1c2ccccc2Sc2ccccc21`, the “activation” value was inactive: -0.459%.
With `C=CCN(CC=C)C(=S)NC(=O)c1ccc(OC)cc1` the Potency was inconclusive [rising, single point].
In the case of `CC(C)c1ccc(C(=O)CSc2ncn[nH]2)cc1`, the Potency is reported as inconclusive [rising, single point].
In the case of `CC(C)C(C)NC(=O)CSc1nnc(-c2c[nH]c3ccccc23)o1` (centres undefined), the Potency is reported as inconclusive [rising, single point].
`CS(=O)(=O)c1nc(-c2cccs2)cc(C(F)(F)F)n1` was tested, and the Potency was inconclusive [rising, single point].
With `CCNC(=S)N/N=C(\C)c1cccc(OC)c1` the Potency was inconclusive [activator, partial curve].
In the case of `Cn1c(SCC(=O)NC2CC2)nnc1-c1cccs1`, the Potency is reported as inconclusive [rising, single point].
In the case of `Cc1cc(O)c(C(C)C)cc1C1(c2cc(C(C)C)c(O)cc2C)OC(=O)c2ccccc21`, the Potency is reported as inconclusive [rising, single point].
For `COCCn1nnnc1C(c1cc2c(C)cc(C)cc2[nH]c1=O)N1CCCCCC1` (centres undefined), the Potency was inconclusive [activator, partial curve].
For `CC1CCCC(NC(=O)c2cccs2)C1C` (centres undefined), the Potency was inconclusive [rising, single point].
With `COc1ccc2nc(NC(=S)N(C)C)sc2c1` the Potency was inconclusive [rising, single point].
In the case of `COC(=O)N1C(=O)[C@@](c2ccccc2)(C2CCCC2)N1C(=O)OC`, the Potency is reported as inconclusive [rising, single point].
With `CCOc1cc(C(=S)N2CCOCC2)ccc1OS(=O)(=O)c1ccccc1[N+](=O)[O-]` the Potency was active: 1.16 µM.
In the case of `CN1CC=C2C(C#N)=C(N)C(C#N)(C#N)[C@H](c3ccoc3)[C@H]2C1`, the “activation” value is reported as inactive: 0.548%.
In the case of `O=C(CSc1nnc(COc2ccccc2F)n1-c1ccccc1)NCc1ccco1`, the Potency is reported as inconclusive [rising, single point].
`CCOC(=O)c1c(C)nc2c(c1-c1ccccc1)C(=O)CC(C)(C)C2` was tested, and the Potency was inconclusive [rising, single point].
For `CC(C)c1ccc(Nc2nnc(SC3CCOC3=O)s2)cc1` (centres undefined), the Potency was inconclusive [rising, single point].
In the case of `C#CCn1c(=NC(=O)CSC(C)=O)sc2cc(F)ccc21`, the Potency is reported as inconclusive [rising, single point].
For `C[c-]1[c-](C)[c-](C)[c-](C)[c-]1C.[Fe].c1cc2nccc(N3CCCC3)[c-]2c1` (centres undefined), the Potency was inconclusive [activator, partial curve].
For `CC(=O)O[C@H]1C2OC(=O)C(C)=C2[C@@H]2OC(=O)[C@]3(CCC4OC41C)OC23` (some centres undefined), the Potency was inconclusive [rising, partial curve, poor fit].
With `N#CC1=C(SCC(=O)Nc2nccs2)NC(=O)CC1c1ccccc1` (centres undefined) the “activation” value was inactive: 0.0937%.
With `COC(=O)c1c(-c2cccnc2)csc1NC(=O)c1cc(C)on1` the Potency was inconclusive [rising, single point].
With `CCOC(=O)C1CCN(Cc2ccc(C(=O)OC)cc2)CC1` the Potency was inconclusive [rising, single point].
